In all, about 33,000 sequences were measured (“E-score (-0.5 to 0.5)”: median about -0.016, highest 2% from about 0.32 on). The list shows a part of the results.
Target: T1, Stp1 (UniProt B3LFK1)
T1 sequence: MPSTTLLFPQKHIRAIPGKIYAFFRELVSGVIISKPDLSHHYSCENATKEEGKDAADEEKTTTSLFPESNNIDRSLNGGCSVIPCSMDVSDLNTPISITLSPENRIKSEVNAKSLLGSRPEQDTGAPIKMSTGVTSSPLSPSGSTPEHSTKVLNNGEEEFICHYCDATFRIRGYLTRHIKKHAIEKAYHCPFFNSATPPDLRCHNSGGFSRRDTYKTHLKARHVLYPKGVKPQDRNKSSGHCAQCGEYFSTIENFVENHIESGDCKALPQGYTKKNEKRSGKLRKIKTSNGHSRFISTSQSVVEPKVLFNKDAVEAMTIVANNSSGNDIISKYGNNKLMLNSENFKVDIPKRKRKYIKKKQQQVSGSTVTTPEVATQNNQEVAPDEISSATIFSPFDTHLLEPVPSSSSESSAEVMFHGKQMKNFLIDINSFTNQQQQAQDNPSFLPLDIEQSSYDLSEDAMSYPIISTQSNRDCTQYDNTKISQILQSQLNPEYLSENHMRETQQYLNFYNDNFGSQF
Experiment: PBM E-score (8-mer binding enrichment) (E-score (-0.5 to 0.5)); higher = stronger / more preferred TF binding; most listed sequences are background and not binding sites
Details: protein concentration: 200 nM; construct: GST-full length
Outline: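 Bound GST-tagged yeast transcription factors, applied at about 100-200 nM to double-stranded universal all-10-mer Agilent arrays, were detected with fluorescent anti-GST. Scans were normalised with masliner. A modified Wilcoxon-Mann-Whitney statistic, the E-score, was assigned to each ungapped eight-base word pooled with its reverse complement by the Universal PBM Analysis Suite.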

Row | Sequence | PBM E-score
1 | ACTTATAG | -0.0732
2 | AAGCGAGT | 0.0645
3 | ATCGCCAT | 0.193
4 | AAACGCGA | 0.117
5 | GTCGCGTA | 0.0619
6 | ATCCGCTC | -0.0544
7 | ATTGACGC | 0.208
8 | ACTTCGAA | 0.134
9 | GCGCGTTA | 0.188
10 | AGCGTCAA | 0.0474
11 | AGAGTCAT | -0.318
12 | ATCATCGG | -0.048
13 | ACCCCCAC | -0.246
14 | TAAGGGGA | -0.249
15 | ATAACAAT | -0.00077
16 | AAGGACCA | -0.132
17 | ATATCGCA | -0.0231
18 | AGCGGGAT | 0.0317
19 | CGTGGTCA | -0.0832
20 | ATAAAATG | 0.163
21 | ACTCTGGC | -0.0685
22 | AATATTAC | 0.121
23 | GGGCGCAC | -0.0463
24 | CTCCCTAC | -0.163
25 | CAGTATCC | 0.00046

Row | Sequence | PBM E-score
26 | CGGATAAC | 0.0969
27 | GAACCGAC | 0.0425
28 | GGAGACTA | -0.101
29 | CTGTTGGA | 0.0495
30 | AGACAGAA | -0.0425
31 | CCGGGAGG | -0.245
32 | CGAAATGA | 0.174
33 | CAGAAGGC | 0.134
34 | ATTGAGTA | 0.176
35 | ATTTCATG | 0.0433
36 | GATATGGC | -0.0541
37 | CGGTATTA | 0.0515
38 | CCGCCAGC | -0.278
39 | GGAAGAGA | -0.0204
40 | GAACGTCA | -0.194
41 | ATGGTCGA | 0.00375
42 | AGGATGAC | -0.245
43 | ACACGTGT | -0.0817
44 | ACAGATGG | -0.0467
45 | ATGAGATG | 0.141
46 | TACACTAA | 0.0201
47 | ACCGCCCC | -0.144
48 | ACATCACG | -0.075
49 | CGATCAAC | -0.174
50 | GCTATATA | 0.179

Row | Sequence | PBM E-score
51 | ACGGTCCA | -0.2
52 | CCCCGCTC | -0.343
53 | GTCTGCAC | -0.186
54 | TAGCTGAA | -0.0818
55 | AGCTTAAG | -0.0834
56 | CTTTGCTC | -0.0985
57 | AAAGAGCC | 0.0603
58 | ATGGCCTG | -0.159
59 | GAGTTGAC | -0.185
60 | GAGCCAAC | -0.0531
61 | CAGCGATG | -0.0761
62 | ACCGGACT | -0.168
63 | CAGTCCTA | -0.218
64 | AACTAGGC | 0.0847
65 | CGCTTCCG | 0.00427
66 | AGTTCCCG | -0.0909
67 | AGCAAGAA | -0.0915
68 | GGACACGA | -0.159
69 | ATTTCGGA | 0.136
70 | GTGTGTCA | 0.0769
71 | GGGTTTGA | 0.0868
72 | GAAACCCC | -0.237
73 | AGGGCTGC | -0.174
74 | CATCAGAA | 0.0513
75 | ACGAGTTG | -0.0653

Row | Sequence | PBM E-score
76 | ACGCGTTA | 0.0678
77 | GTTTATCA | 0.246
78 | ATCACCGC | -0.00184
79 | ACTCGCCA | 0.0484
80 | ACCGAGCA | -0.0192
81 | AGAGACTG | -0.206
82 | AGTTAGAT | -0.00459
83 | GGAATGCA | -0.0291
84 | CTGGATAC | -0.0367
85 | CTGCTCGC | -0.243
86 | CGCGCGGA | 0.256
87 | CTCGCCTC | 0.00469
88 | CTTAGAAA | 0.0995
89 | GGTTAGAC | -0.0207
90 | AACCTCGG | 0.056
91 | GGGCGAAA | 0.0741
92 | AATAGAAG | 0.0231
93 | CAGAGACC | -0.17
94 | AAGTTCTG | -0.0022
95 | TAGCAGGA | -0.226
96 | ATTCTGCC | 0.237
97 | ACGTAATA | 0.133
98 | GGCCCTTA | -0.0507
99 | CGGTTACG | 0.0349
100 | CAGGGGAG | -0.321

Row | Sequence | PBM E-score
101 | CTCTTCGC | -0.0665
102 | ATTATAGA | 0.00759
103 | CACTTAGG | -0.144
104 | CTACCCAG | -0.32
105 | CCGCATCC | 0.265
106 | TAGCCTGA | -0.156
107 | CTGAAGCA | 0.0186
108 | ACAAAAGG | 0.149
109 | AGGGTTCC | -0.289
110 | ACAATAAC | 0.246
111 | CCGGCGAC | -0.167
112 | GCAACTCA | 0.0174
113 | ACTAGAAC | 0.0839
114 | AGGGGGAT | -0.338
115 | GAATTTTA | 0.2
116 | ATGTGAGG | 0.171
117 | ACTTGCCA | -0.106
118 | CTCATAGC | -0.203
119 | ATTGGGTA | -0.0748
120 | AATCGCAC | -0.113
121 | AACACGAT | 0.0593
122 | CCACAGAA | -0.164
123 | GAAAACGC | 0.119
124 | GGTACATA | 0.00334
125 | GATCGATA | 0.0061

Row | Sequence | PBM E-score
126 | ATTTATTC | 0.279
127 | GGCTACTA | 0.0999
128 | CTCGATGC | -0.157
129 | CATATCTC | -0.0779
130 | GCCGAGAC | -0.0678
131 | GCACTCCA | -0.114
132 | ACTTTCAG | -0.11
133 | CACTCCGC | -0.0759
134 | GGTACGAC | -0.27
135 | CATCCCAA | 0.0348
136 | CAGACAGA | 0.0203
137 | ACGATCAT | -0.0345
138 | CCACTGGG | -0.26
139 | CCTTTGTA | 0.0318
140 | AGGCAATC | 0.114
141 | ACTTTTCA | 0.0644
142 | ACGAATGC | 0.108
143 | GTCGGCAC | 0.172
144 | AGCCCAAT | -0.0513
145 | ATCGCTTG | -0.0502
146 | AAGTACGT | 0.0577
147 | CGGGATCA | -0.263
148 | AGTGGATC | -0.122
149 | ATATGGCG | 0.207
150 | GGTCAAGA | -0.119

Row | Sequence | PBM E-score
151 | CGCGGACC | 0.0907
152 | CCTACTAG | -0.219
153 | CAGGATCA | -0.0277
154 | CAGGGTAA | -0.0539
155 | TATGGAAA | -0.0157
156 | CGCCGAAA | 0.0531
157 | CGGACATC | -0.0908
158 | CACGTGAA | 0.123
159 | AAAATAAC | 0.0333
160 | AGCACACG | 0.0926
161 | GGGGCTAC | -0.161
162 | ACGGTACT | 0.0277
163 | GGATAGAC | -0.0544
164 | CGCAAGAG | -0.00269
165 | ACCTACAT | -0.177
166 | TAATCCTA | 0.0466
167 | AAGCGATC | -0.0218
168 | AAACACAC | 0.204
169 | CACGAACC | -0.0471
170 | AACATGAT | 0.139
171 | AAGAGTGT | -0.139
172 | CAAGAAGA | 0.0362

From the supplement of paper PMC3334620
